# Several values for one entry are separate records, joined by “and”; a condition that tells them apart may be missing. Equal values may be shown once. The shares of active, inactive and inconclusive entries below differ from those in the screen. For part of these data: Potencies of inconclusive entries are doubtful fits and often do not repeat. The source holds several records for some structures; these can differ, active in one and inactive in another. Activity calls are given as the source filed them. Unless noted, the call rests on the fitted dose curve; in most records, active means well fitted curve in the direction sought with a large enough effect in the repeat runs; inconclusive means weak or mixed curves; inactive means no such curve, though single readings can be large; an effect the other way counts as inactive or inconclusive.
# Assays:
# [1] = qHTS assay to identify small molecule agonists of H2AX - cell viability counter screen (AID 1224847; calls by dose curve; further: potency means the concentration at half of the fitted maximal effect; nearly all actives have a fitted effect of over 30% in size)
# Method in brief: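 Cells plated first: CHO-K1, 1000 per well in 10% FBS medium, incubated overnight at 37C. Then 15-point compound titration added (final DMSO 0.76%) for 3 hr. Finally CellTiter-Glo added and luminescence read.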
# [2] = qHTS RealTime-Glo MT Cell Viability Assay in HEK293 cells - 40 hour (AID 1224874); details: RealTime-Glo luminescence; max response: stronger effect = lower value; further: nearly all actives have a fitted effect of over 50% in size; further: potency means the concentration at half of the fitted maximal effect; on max response: on the % scale 0 is the no-effect control and ±100 the full control effect
# Method in brief: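 qHTS format; HEK293 cells with NanoLuc/prosubstrate reagent, 37 C/5% CO2 for 5 h pre-dosing; compounds 23 nL in DMSO; luminescence at each time point reflects viable cells.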
# [3] = qHTS assay to identify small molecule antagonists of the estrogen related receptor (ERR) signaling pathway from Tox21 library (AID 1224848); further: on the % scale 0 is the no-effect control and ±100 the full control effect; nearly all actives have a fitted effect of over 50% in size
# Method in brief: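 Cells: ERR line, 2,000/well; 6 h preincubation 37 C/5% CO2. Cpd in DMSO via pin tool; 18 h, 37 C. ONE-Glo, 30 min RT, luminescence.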
# [4] = qHTS assay to identify small molecule agonists of the estrogen related receptor (ERR) signaling pathway from Tox21 library (AID 1224849; calls by dose curve; further: on the % scale 0 is the no-effect control and ±100 the full control effect; nearly all actives have a fitted effect of over 15% in size); details: ERR reporter cell line, ONE-Glo luciferase, 18 h; at 42.5 µM (top of the series)
# Method in brief: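 We plated ERR reporter cells, waited 6 h, added compounds in DMSO by pin tool and incubated them 18 h at 37 C. ONE-Glo was then added and luminescence read after 30 min.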
# [5] = qHTS RealTime-Glo MT Cell Viability Assay in HEK293 cells - 32 hour (AID 1224868); further: nearly all actives have a fitted effect of over 50% in size; further: potency means the concentration at half of the fitted maximal effect
# Method in brief: (§1)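 Assay medium contained NanoLuc luciferase plus cell-permeant prosubstrate, added with HEK293 cells at 600 cells/well. After 5 h at 37 C/5% CO2 compounds were added; plates stayed at 37 C for 40 h with serial luminescence reads.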
# [6] = A CellTox Green Cytotoxicity Assay to monitor cytotoxicity in HEK293 cells - 40 hour (AID 1224871); further: potency means the concentration at half of the fitted maximal effect; nearly all actives have a fitted effect of over 45% in size
# Method in brief: (§2)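 Each value comes from one timepoint of a single continuous run in which HEK293 cells with CellTox Green were exposed to compound for up to 40 h at 37 C, dye fluorescence rising with cell death.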
# [7] = A CellTox Green Cytotoxicity Assay to monitor cytotoxicity in HEK293 cells - 24 hour (AID 1224875); further: potency means the concentration at half of the fitted maximal effect; nearly all actives have a fitted effect of over 45% in size
# Method in brief: as §2
# [8] = A CellTox Green Cytotoxicity Assay to monitor cytotoxicity in HEK293 cells - 32 hour (AID 1224881); further: potency means the concentration at half of the fitted maximal effect; nearly all actives have a fitted effect of over 40% in size
# Method in brief: as §2
# [9] = qHTS RealTime-Glo MT Cell Viability Assay in HepG2 cells - 24 hour (AID 1224867); further: nearly all actives have a fitted effect of over 50% in size; further: potency means the concentration at half of the fitted maximal effect
# Method in brief: (§3)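 qHTS, HepG2, 600 cells/well, RealTime-Glo (NanoLuc + prosubstrate) added with cells; 5 h preincubation; DMSO compound addition; 37 C; luminescence at 0/8/16/24/32/40 h.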
# [10] = qHTS RealTime-Glo MT Cell Viability Assay in HEK293 cells - 16 hour (AID 1224872)
# Method in brief: as §1
# [11] = qHTS RealTime-Glo MT Cell Viability Assay in HepG2 cells - 32 hour (AID 1224877); further: potency means the concentration at half of the fitted maximal effect; nearly all actives have a fitted effect of over 55% in size
# Method in brief: as §3
# [12] = A CellTox Green Cytotoxicity Assay to monitor cytotoxicity in HepG2 cells - 40 hour (AID 1224879); further: potency means the concentration at half of the fitted maximal effect; nearly all actives have a fitted effect of over 40% in size
# Method in brief: (§4)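 Continuous culture of HepG2 cells with a membrane-impermeant DNA dye; rising fluorescence marks dead cells. Compound exposure lasted up to 40 h at 37 C, with reads every 8 h from 0 h.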
# [13] = A CellTox Green Cytotoxicity Assay to monitor cytotoxicity in HepG2 cells - 16 hour (AID 1224876); further: potency means the concentration at half of the fitted maximal effect; nearly all actives have a fitted effect of over 45% in size
# Method in brief: as §4
# Tags describe the fitted curve by direction and shape.
smiles,measurement,setting,value
NNC(=O)c1cccc(C(=O)NN)c1,Potency,[1],"inconclusive: 1.6 µM [cytotoxic, single point]"
same,max response,[2],inactive: -2.8%
CSc1ccc(C(=O)c2[nH]c(=O)[nH]c2C)cc1,Potency,[3],inactive
same,"activity change, positive = activation",[4],inconclusive: 15.9%
CCCCCCCCCC(=O)N(C)C,Potency,[3],inactive
same,Potency,[5],inactive
same,Potency,[6],"inconclusive: 55.8 µM [activator, single point]"
same,max response,[2],inactive: -15.6%
same,Potency,[7],"inconclusive: 55.8 µM [activator, single point]"
same,Potency,[8],"inconclusive: 55.8 µM [activator, single point]"
Cc1ccc(NC(N)=O)cc1,Potency,[5],inactive
Oc1c(I)cc(Cl)c2cccnc12,Potency,[9],"inconclusive: 54.9 µM [falling, partial curve, poor fit]"
same,Potency,[5],"inconclusive: 30.1 µM [cytotoxic, single point]"
same,Potency,[10],"inconclusive: 43.6 µM [cytotoxic, partial curve]"
same,Potency,[2],"inconclusive: 26.8 µM [cytotoxic, single point]"
same,Potency,[7],"inconclusive: 9.76 µM [activator, partial curve, poor fit]"
same,Potency,[11],"inconclusive: 54.9 µM [cytotoxic, partial curve, poor fit]"
same,Potency,[12],active: 34.6 µM and active: 5.35 µM
OCCOCCN1CCN(C(c2ccccc2)c2ccc(Cl)cc2)CC1 (centres undefined),Potency,[9],active: 48.3 µM and inactive
same,Potency,[10],active: 9.64 µM
same,Potency,[7],"inconclusive: 54.2 µM [activator, single point]"
same,Potency,[13],active: 38.4 µM
same,Potency,[12],"active: 38.4 µM and inconclusive: 26.8 µM [activator, single point]"
same,Potency,[8],"inconclusive: 54.2 µM [activator, single point]"
